Laboratory results published in paper PMC9365803, “Identification of a HTT-specific binding motif in DNAJB1 essential for suppression and disaggregation of HTT” (Nature Communications, 2022).

T1: HTTExon1Q48
T1 chain: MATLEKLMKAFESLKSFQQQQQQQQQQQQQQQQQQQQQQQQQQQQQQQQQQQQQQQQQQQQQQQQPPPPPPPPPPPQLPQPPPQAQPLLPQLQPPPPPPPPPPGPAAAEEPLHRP

T2: HTTExon1Q48 fibrils
T2 construct: first exon of huntingtin with 48 glutamines, as amyloid fibrils; Amyloid fibrils of many copies; also called HTT fibrils; preformed HTTExon1Q48 fibrils; not shown: GST, N-terminal, cleaved; CyPet, C-terminal, kept
T2 chain: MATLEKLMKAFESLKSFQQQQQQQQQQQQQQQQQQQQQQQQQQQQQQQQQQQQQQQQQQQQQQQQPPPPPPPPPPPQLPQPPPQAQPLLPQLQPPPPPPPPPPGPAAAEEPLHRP


Key:
[1] = molecular target: T1, HTTExon1Q48; experiment: cell-based or functional assay
[2] = molecular target: T2, HTTExon1Q48 fibrils; experiment: co-sedimentation; HTT fibril-binding assay: 2 µM HTTExon1Q48 aggregated 4.5 h at 20 °C; DNAJB1 variant added at 1 µM, 1 h at RT; sedimented at 20.000 rpm 30 min 4 °C; pellet analysed by Western blot; conditions: both partners purified
[3] = molecular target: the molecule itself; experiment: SEC; Superdex 75 10/300 GL and Superose 6; 30 mM HEPES-KOH pH 7.4, 50 mM KCl, 1 mM β-mercaptoethanol; 0.5 ml/min; Conalbumin and Ovalbumin as standards
[4] = molecular target: T2, HTTExon1Q48 fibrils; experiment: cell-based or functional assay

Row | half-life (T1/2) of HTTExon1Q48 fibrilization, FRET assay, with Hsc70, Apg2 and ATP [1] [h] | fibril binding relative to DNAJB1^wt [2] [%] | re-solubilization of preformed HTTExon1Q48 fibrils with Hsc70, Apg2 and ATP, relative to DNAJB1^wt [4] [%] | Binder | binding result [3]
1 | 27 | – | – | DNAJB1^wt (natural protein, human) MGKDYYQTLGLARGASDEEIKRAYRRQALRYHPDKNKEPGAEEKFKEIAEAYDVLSDPRKREIFDRYGEEGLKGSGPSGGSGGGANGTSFSYTFHGDPHAMFAEFFGGRNPFDTFFGQRNGEEGMDIDDPFSGFPMGMGGFTNVNFGRSRSAQEPARKKQ[about 150 residues not shown]PERIPQTSRTVLEQVLPI | –
2 | 10 | ~30 | ~50 | DNAJB1^H244A (natural protein, human, DNAJB1 (human Hsp40) with H244A; primers S1-T1 on this plasmid run from the start codon to the stop codon; Same SEC elution peak as the wild type (dimer); source: E. coli BL21-CodonPlus (DE3)-RIPL, purified (Ni-NTA; His-Smt3 tag cleaved with His-Ulp1); not shown: 6His-Smt3, N-terminal, cleaved) MGKDYYQTLGLARGASDEEIKRAYRRQALRYHPDKNKEPGAEEKFKEIAEAYDVLSDPRKREIFDRYGEEGLKGSGPSGGSGGGANGTSFSYTFHGDPHAMFAEFFGGRNPFDTFFGQRNGEEGMDIDDPFSGFPMGMGGFTNVNFGRSRSAQEPARKKQ[about 150 residues with changes not shown]PERIPQTSRTVLEQVLPI | binds
